Test results as given in PMC3415985 (Journal of molecular biology, 2012).

B1: BirA D197A (enzyme)
chain: not shown
B2: BirA T195A (enzyme)
chain: not shown
B3: BirA V171A (enzyme)
chain: not shown
B4: BirA P143A (enzyme)
chain: not shown
B5: BirA N175A (enzyme)
chain: not shown
B6: BirA K194A (enzyme)
chain: not shown
B7: BirA Q141A (enzyme)
chain: not shown
B8: BirA G193A (enzyme)
chain: not shown
B9: BirA R170A (enzyme)
chain: not shown
B10: BirA E140A (enzyme)
chain: not shown
B11: BirA K283A (enzyme)
chain: not shown
B12: BirA D282A (enzyme)
chain: not shown
B13: BirA G196A (enzyme)
chain: not shown

Molecular target: the molecule itself
Assay: AUC
Work on B1 yielded a Kd of 500 µM.
With B2 the Kd was 100 µM.
B3 showed a Kd of 0.3 µM.
In the case of B4, the Kd is reported as 40 µM.
Protein B5 has a Kd of 60 µM.
B6 gave a Kd of no more than 0.01 µM.
For B7, the Kd was 3 µM.
Protein B8 has a Kd of 0.5 µM.
For B9, the Kd was 40 µM.
Protein B10 has a Kd of 22 µM.
With B11 the Kd was 12 µM.
Work on B12 yielded a Kd of 2 µM.
B13 was tested, and the Kd was 5 µM.
